# Experimental data reported in publication PMC4336329 (PLoS ONE, 2015).
# Out of some 310,000 compounds screened, about 2,200 (0.71%) showed an effect of 50% or more. Effects have a minus sign here. The list shows a part of the results.
# Molecular target: human ether-à-go-go-related gene (hERG) potassium channel (human, UniProt Q12809)
# Assay: primary screen, population patch clamp on CHO cells stably expressing hERG
# Chain of human ether-à-go-go-related gene (hERG) potassium channel (Q12809 whole entry, looked up): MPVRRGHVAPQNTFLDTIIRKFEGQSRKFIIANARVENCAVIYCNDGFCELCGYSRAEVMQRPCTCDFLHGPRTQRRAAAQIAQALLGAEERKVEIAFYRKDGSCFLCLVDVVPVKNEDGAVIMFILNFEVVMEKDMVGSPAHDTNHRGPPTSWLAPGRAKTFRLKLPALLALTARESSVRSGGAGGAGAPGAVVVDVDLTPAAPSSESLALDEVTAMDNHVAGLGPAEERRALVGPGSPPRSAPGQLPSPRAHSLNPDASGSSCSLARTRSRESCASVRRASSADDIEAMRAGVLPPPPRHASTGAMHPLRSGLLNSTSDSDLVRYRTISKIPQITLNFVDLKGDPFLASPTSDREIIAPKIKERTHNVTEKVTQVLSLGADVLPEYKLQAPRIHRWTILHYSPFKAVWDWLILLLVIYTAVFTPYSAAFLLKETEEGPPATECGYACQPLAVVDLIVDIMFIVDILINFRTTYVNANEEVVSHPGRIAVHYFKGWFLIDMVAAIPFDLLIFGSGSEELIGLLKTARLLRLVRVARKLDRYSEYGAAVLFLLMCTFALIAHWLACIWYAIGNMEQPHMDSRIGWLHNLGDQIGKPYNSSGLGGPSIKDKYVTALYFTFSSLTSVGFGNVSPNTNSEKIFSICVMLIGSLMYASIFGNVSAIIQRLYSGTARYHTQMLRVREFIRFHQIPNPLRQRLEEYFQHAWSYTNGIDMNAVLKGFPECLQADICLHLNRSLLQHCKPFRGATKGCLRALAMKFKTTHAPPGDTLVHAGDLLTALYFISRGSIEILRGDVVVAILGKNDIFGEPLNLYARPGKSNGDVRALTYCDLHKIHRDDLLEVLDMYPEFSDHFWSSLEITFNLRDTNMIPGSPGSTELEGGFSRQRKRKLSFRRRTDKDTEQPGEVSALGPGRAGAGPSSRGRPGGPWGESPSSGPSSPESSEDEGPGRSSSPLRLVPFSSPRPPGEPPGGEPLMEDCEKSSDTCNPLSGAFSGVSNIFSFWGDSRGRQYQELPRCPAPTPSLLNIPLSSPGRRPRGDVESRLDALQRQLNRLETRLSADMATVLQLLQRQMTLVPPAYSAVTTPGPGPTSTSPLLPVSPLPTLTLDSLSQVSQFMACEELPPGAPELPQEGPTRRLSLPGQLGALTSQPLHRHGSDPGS
row,SMILES,"hERG current change (%, negative = inhibition) at 1uM [%]"
1,OCn1ncn(-c2ccccc2)c1=S,13.8
2,O=c1[nH]cc(N=Cc2cc(Cl)cc(Cl)c2O)c(=O)[nH]1,12.3
3,COc1ccc(Nc2cc(C(=O)NCCCN3CCN(C)CC3)c3ccccc3n2)cc1OC,4.7
4,CCN(CC)C(=O)c1n[nH]c(=O)c2ccccc12,7.4
5,CCCOc1ccc(C(=O)N/N=C/c2ccc(-c3ccc(S(=O)(=O)Nc4ncccn4)cc3)o2)cc1,10.7
6,CC(=O)c1cc2c(cc1NC(=O)c1ccc(C)cc1)OCO2,1.78
7,CCOc1ccc(CCNC(=O)COC(=O)c2ccc(S(=O)(=O)N3CCCC3)cc2)cc1OCC,22.4
8,CCOC(=O)c1c(-c2ccccc2)c2cc(OC)ccc2n1CCCN(C)C.Cl,-27.3
9,CCCNS(=O)(=O)c1ccc(OCC(=O)N(C)Cc2ccccc2)cc1,9.25
10,COc1cc2cc(C(=O)N(C)Cc3ccccc3)[nH]c2cc1OC,7.93
11,CCCNC(=O)C(=O)Nc1ccc2c(c1)N(S(=O)(=O)c1cccs1)CCC2,-3.79
12,Cc1cc(NC(=O)c2ccc(NC(=O)CC(C)C)cc2)no1,-7.27
13,CC1(C)CC(=O)C=C(Nc2ccccc2)C1,8.86
14,CN(C)CCN(C(=O)c1ccc(S(=O)(=O)N(C)c2ccccc2)cc1)c1nc2cc3c(cc2s1)OCO3.Cl,10.4
15,COc1ccc(-c2nc(CS(=O)CC(=O)NCCCN3CCOCC3)c(C)o2)cc1OC (stereo not drawn),14
16,COC(=O)CSC1=C(C#N)C(c2ccccc2OC)C(C(=O)OC)C(=O)N1 (stereo not drawn),8.52
17,O=C1CC(SC(=Nc2ccccc2)Nc2ccccc2)C(=O)N1c1ccc(Cl)cc1 (stereo not drawn),12.7
18,O=C(COC(=O)C1CCN(S(=O)(=O)c2cccs2)CC1)Nc1ccccc1Br,-0.345
19,C=CCn1c2ccccc2c2nnc(SCC(=O)NC(C(=O)OC)C(C)C)nc21 (stereo not drawn),1.83

row,SMILES,"hERG current change (%, negative = inhibition) at 1uM [%]"
1,Cc1cccc(N2C(=O)CN(Cc3ccccc3)C2=S)c1,2.63
2,C=CCc1cccc(/C=N/NC(=O)CCC(=O)Nc2ccc(C)cc2)c1O,9.4
3,CCC/C=C(\CCC)C(NC(=O)CCc1ccccc1)c1ccc(C(F)(F)F)cc1 (stereo not drawn),11
4,Cc1ccc2nc(SCc3cn4cccnc4n3)[nH]c2c1,3.82
5,Cc1cc(C)nc(NS(=O)(=O)c2ccc(NC(=O)C(C)C)cc2)n1,14.4
6,Nc1nc(-c2ccccc2)c(-c2ccc([N+](=O)[O-])cc2)s1,10.6
7,CC(=O)Nc1ccc(NC(=O)C(C)OC(=O)C2CC3C=CC2C3)cc1 (stereo not drawn),4.38
8,CCOC(=O)C1CCCN(C(=O)c2cc(S(=O)(=O)N3CCCCC3)ccc2C)C1 (stereo not drawn),6.78
9,OCCN(Cc1ccccc1)CC1CC=CCC1 (stereo not drawn),10.2
10,CCO[C@H]1OC(C(=O)Nc2ccccc2)=C[C@@H](c2ccc(Br)cc2)[C@@H]1CCCO,15.3
11,CC(C)(C)NC(=O)Cn1nnc(-c2ccc(OCc3c(F)cccc3Cl)cc2)n1,14.3
12,COc1ccc(C(=O)/C=C(\C)Nc2ccc(NC(C)=O)cc2)cc1,7.53
13,O=C1C(=O)N(CCN2CCOCC2)C(c2ccccn2)/C1=C(/O)c1ccc(Cl)cc1 (stereo not drawn),2.46
14,Cn1nccc1C(=O)NC1CCN(Cc2ccccc2)CC1,3.26
15,COc1ccc(Br)cc1/C=N/NC(=O)Cn1nnnc1N,15.5
16,CCCc1cc(C(=O)Nc2cccc(Cl)c2C)no1,1.64
17,Cc1ccc(C(=O)CC(c2cccs2)S(=O)(=O)c2ccc(C)cc2)cc1 (stereo not drawn),5.62
18,Cc1ccc(Nc2nc3nonc3nc2N(C)C)cc1,7.6
19,Cc1ccc(NC(=O)CCSc2ccccn2)cc1,5.81

row,SMILES,"hERG current change (%, negative = inhibition) at 1uM [%]"
1,Cc1cc(Cl)ccc1NNC(=O)c1cccs1,11
2,COc1ccc(-c2nc(CN3CCCC(C(=O)NC4CCCC4)C3)c(C)o2)cc1 (stereo not drawn),-53.5
3,CCCNC(=S)Nc1cc2oc3ccccc3c2cc1OC,7.75
4,Cc1c(O)ccc2c(CN3CCN(Cc4ccccc4)CC3)cc(=O)oc12,-7.98
5,COC(=O)c1c(NC(=O)CSc2n[nH]c(N)n2)sc(C)c1C,10.3
6,CCN(C(=O)COC(=O)c1ccc(N2C(=O)c3ccccc3C2=O)cc1)C1CCS(=O)(=O)C1 (stereo not drawn),16.5
7,CC(=O)Nc1ccc(Nc2nc(-c3ccccc3)nc3ccccc23)cc1,4.41
8,COC(=O)c1cn[nH]c1NC(=S)Nc1ccc(C)cc1Cl,7.19
9,Cc1ccccc1NC(=O)COC(=O)Cc1ccsc1,7.87
10,O=C(NC1C(=O)NNC1c1ccccc1)c1ccc(F)cc1 (stereo not drawn),16.4
11,Cc1ccc(OCC(=O)Nc2ccc(S(=O)(=O)N3CCCC3)cc2)cc1,17
12,CC(C)C(O)(C#CCN1CCCCC1)C(C)C,-3.07
13,CCc1nc(SCc2ccc(C(=O)OC)o2)c2c(=O)n(C)c(=O)n(C)c2n1,7.13
14,CCCN(CCC)CCCNC(=O)C(NS(=O)(=O)c1ccc2c(c1)CCC(=O)N2)c1ccccc1 (stereo not drawn),14.5
15,CC(C)c1ccc(S(=O)(=O)N2CCN(C(=O)C3CCCC3)CC2)cc1,7.55
16,CC(=O)NC(Cc1ccccc1)C(=O)OCC(=O)c1ccc(Br)cc1 (stereo not drawn),11.8
17,CNS(=O)(=O)c1cc(NC(=O)c2cnc(SC)n2-c2ccccc2)ccc1C,16.3
18,Clc1cccc(CN2CCC(Cc3ccccc3)CC2)c1,-0.686
19,Cc1ccc([N+](=O)[O-])cc1Nc1nc(N2CCOCC2)nc(N2CCOCC2)n1,2.41
